Hit rate of the full screen: of about 270,000 compounds, about 620 (0.23%) were called active. This list was built around the results that the source calls inconclusive (neither active nor inactive); the mix of calls is not that of the screen. Calls come from the whole dose curve; as a rule, active = well fitted inhibition curve with a large enough effect in the polarisation, with a control signal flat (not every such curve was filed as active); inconclusive = small, poorly fitted or top-dose-only effect, or effect the other way, or a change in a side signal; inactive = no such curve, though single readings can be large or run the other way; the % refers to the polarisation. Potencies beside an inconclusive call are fits to weak or partial responses and may not hold up. A note “side channel” means that the fit belongs to a control or component signal, not to the main read-out.
molecular target: Menin (Homo sapiens) (UniProt O00255); assay: qHTS Assay for Inhibitors Targeting the Menin-MLL Interaction in MLL Related Leukemias: Competition With Texas Red Labeled MLL-derived Mutant Peptide; conditions: fluorescence polarization; FP activity change, negative = inhibition: at 61.6 µM (top of the series); for FP activity change, negative = inhibition: % of control where 0% means no effect
Potency is the fitted concentration of half-maximal effect; tags give direction and shape of the fitted curve or compound fluorescence and quenching.

Chain of UniProt O00255 (O00255 whole entry, looked up): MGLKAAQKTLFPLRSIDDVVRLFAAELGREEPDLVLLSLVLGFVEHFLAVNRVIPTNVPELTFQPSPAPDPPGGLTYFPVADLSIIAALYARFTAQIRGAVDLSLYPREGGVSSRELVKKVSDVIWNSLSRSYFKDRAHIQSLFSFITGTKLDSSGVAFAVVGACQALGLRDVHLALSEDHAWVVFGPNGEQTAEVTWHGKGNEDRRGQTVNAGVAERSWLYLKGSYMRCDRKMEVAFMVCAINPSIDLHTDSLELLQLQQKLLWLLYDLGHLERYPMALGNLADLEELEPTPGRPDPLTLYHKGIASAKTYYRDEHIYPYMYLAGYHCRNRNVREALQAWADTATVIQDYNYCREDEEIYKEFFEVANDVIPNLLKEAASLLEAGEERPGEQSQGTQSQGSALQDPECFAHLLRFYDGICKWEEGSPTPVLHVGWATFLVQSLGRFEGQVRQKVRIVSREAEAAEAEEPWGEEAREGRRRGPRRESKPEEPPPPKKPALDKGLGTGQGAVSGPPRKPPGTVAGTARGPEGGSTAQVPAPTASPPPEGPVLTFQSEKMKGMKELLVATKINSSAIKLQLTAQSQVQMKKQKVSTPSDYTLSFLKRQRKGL

Potency, inconclusive:
O=S(=O)(Nc1ccc2c(c1)oc1ccccc12)N1CCCC1 28.2 µM [quencher, side channel, single point]
Fc1cccc2sc(Nc3nc4cc5c(cc4s3)OCCO5)nc12 17.8 µM [quencher, side channel, single point]
Cc1ncccc1C(=O)N1CCCC(C(=O)c2ccc3c4c(cccc24)CC3)C1 (stereo unspecified) 10 µM [fluorescent, side channel, partial curve, poor fit]
Cc1cc(C(=O)NP(=O)(N2CCOCC2)N2CCOCC2)c(C)n1-c1ccc(N(C)C)cc1 35.5 µM [inhibitor, single point]
C(=Nc1cccc2c(N=Cc3ccco3)cccc12)c1ccco1 10 µM [quencher, side channel, partial curve]
CCC1=NN(C(=O)c2cccc([N+](=O)[O-])c2)C(O)(c2ccc(C)cc2)C1 (stereo unspecified) 39.8 µM [quencher, side channel, partial curve]
Fc1ccc2nc(Nc3nc4cc5c(cc4s3)OCO5)sc2c1 17.8 µM [quencher, side channel, partial curve, poor fit]
COc1cc(NC(=O)Nc2ccc(C)cc2)cc([N+](=O)[O-])c1 15.8 µM [quencher, side channel, partial curve]
Cc1ccc2nc(NC(=O)c3ccc(Cl)s3)sc2c1 10 µM [quencher, side channel, partial curve]
CCC(=O)Nc1ccc(NC(=O)CSc2nnc(-c3ccco3)n2C)cc1 39.8 µM [quencher, side channel, single point]
OC(CNCCc1ccc(Cl)cc1)COc1ccc2ccccc2c1 (stereo unspecified) 35.5 µM [fluorescent, side channel, single point]
O=C(Nc1ccc(S(=O)(=O)Nc2nccs2)cc1)c1nn(-c2ccc(F)cc2)ccc1=O 22.4 µM [quencher, side channel, partial curve]
COc1ccccc1NC(=O)Nc1ccc(Cc2ccncc2)cc1 35.5 µM [quencher, side channel, single point]
CCOC(=O)c1sc2nc(C)nc(N3CCCCC3C)c2c1C (stereo unspecified) 7.94 µM [fluorescent, side channel, partial curve]
COc1ccc(/C=N\NC(=O)c2cc(O)c(O)c(O)c2)cc1COc1ccc(C(=O)OCC(C)C)cc1 10 µM [quencher, side channel, partial curve]
CC1(CCc2ccc3c(c2)OCO3)NCCc2c1[nH]c1ccccc21 (stereo unspecified) 15.8 µM [fluorescent, side channel, partial curve]
FC(F)(F)c1cc(-c2ccco2)nc(NCc2cccs2)n1 25.1 µM [quencher, side channel, partial curve]
O=C(Cn1c(C(F)(F)F)nc2ccccc21)OCC(=O)c1c[nH]c2ccccc12 28.2 µM [quencher, side channel, single point]
Cc1ccc(C(=O)NC(=S)Nc2ccc3[nH]c(=O)[nH]c3c2)cc1C 39.8 µM [inhibitor, single point]
COc1ccc2[nH]cc(CCNc3nc(-c4ccc(N(C)C)cc4)nc4ccccc34)c2c1 6.31 µM [quencher, side channel, partial curve]
CN(C)c1ccc(NC(=S)NC(=O)/C=C/c2ccco2)cc1 25.1 µM [quencher, side channel, single point]
O=C(c1ccc(F)cc1)C(CCCCCC(CN1CCOCC1)C(=O)c1ccc(F)cc1)CN1CCOCC1 (stereo unspecified) 11.2 µM [fluorescent, side channel, partial curve]
CC(C)(C)NCCCOc1ccc(Cl)cc1C(C)(C)C 31.6 µM [fluorescent, side channel, single point]
COc1ccc(N2CCN(Cc3csc(C)c3-c3ccc(C)cc3)CC2)cc1 11.2 µM [fluorescent, side channel, partial curve]
CCOC(=O)c1ccc(NC(=O)CN2C(=O)CSC(C)C2=O)cc1 (stereo unspecified) 3.55 µM [inhibitor, partial curve]
Nc1ccc(Nc2nc3ccccc3[nH]2)cc1 12.6 µM [quencher, side channel, partial curve]
COc1cccc(CSc2nc3ccccc3cc2C=O)c1 17.8 µM [quencher, side channel, partial curve]
Cc1nonc1OCCNCc1c(C(=O)N(C)C)nc2ccc(Cl)cn12 17.8 µM [quencher, side channel, single point]
O=C(O)Cn1c(=O)c2cccn2c2ccccc21 44.7 µM [inhibitor, partial curve]
COc1cc(CNc2ccc3[nH]c(=O)[nH]c3c2)ccc1OCc1ccc(Cl)cc1 22.4 µM [quencher, side channel, partial curve]
CCOC(=O)c1ccc(NC(=O)C(C)N2C(=O)c3ccccc3C2=O)cc1 (stereo unspecified) 22.4 µM [quencher, side channel, partial curve]
Cc1cccc(NC(=S)/N=C(\N)Nc2nc(C)c3ccccc3n2)c1 12.6 µM [inhibitor, partial curve]
CCCCn1c(=S)[nH]c2ccc(N3CCOCC3)cc2c1=O 31.6 µM [quencher, side channel, single point]
COc1cccc(C2C3=C(Nc4[nH]n(-c5ccccc5)c(=O)c42)c2ccccc2C3=O)c1 (stereo unspecified) 22.4 µM [quencher, side channel, partial curve]
CCOc1ccc(-n2c(SCC(=O)OC)nc3sc4c(c3c2=O)CCN(C)C4)cc1 31.6 µM [inhibitor, partial curve]
COc1ccc(C(=O)NCC2(c3ccccc3)CCCC2)c(OC)c1 5.62 µM [fluorescent, side channel, full curve]
CCOc1cccc(C2C(C(=O)c3ccc(C)o3)=C(O)C(=O)N2Cc2ccncc2)c1 (stereo unspecified) 35.5 µM [inhibitor, single point]
Cc1ccc(CSCCNC(=O)c2ccc(NS(C)(=O)=O)cc2)cc1 39.8 µM [inhibitor, single point]
Cc1csc(-c2coc3cc(O[C@@H]4O[C@H](CO)[C@@H](O)[C@@H](O)[C@H]4O)ccc3c2=O)n1 31.6 µM [inhibitor, partial curve]
COc1ccc(C(=O)N=C2SC3CS(=O)(=O)CC3N2Cc2ccc(F)cc2)cc1 (stereo unspecified) 39.8 µM [fluorescent, side channel, single point]
O=C(NC1CCCCC1)C(c1ccc(F)cc1)N(CCc1ccccc1)C(=O)CN1C(=O)c2ccccc2S1(=O)=O (stereo unspecified) 11.2 µM [fluorescent, side channel, partial curve]
O=C(Nn1c(Cc2ccccc2)nc2ccccc2c1=O)c1c(O)c2cccc3c2n(c1=O)CCC3 22.4 µM [inhibitor, single point]
O=C(Nc1ccc(S(=O)(=O)N2CCOCC2)cc1)c1cc([N+](=O)[O-])ccc1Cl 25.1 µM [quencher, side channel, partial curve]
CC(C)(C)OC(=O)NC(Cc1ccccc1)C(=O)NC(CSC1CCCCO1)C(=O)NN (stereo unspecified) 10 µM [inhibitor, single point]
COc1ccc(-c2coc3cc4oc(=O)cc(C)c4cc23)cc1F 12.6 µM [fluorescent, side channel, partial curve]
COc1ccc(C(=O)c2oc3ccccc3c2N)cc1 28.2 µM [quencher, partial curve]
CC1CC(C)CN(CCOc2ccccc2-c2ccccc2)C1 (stereo unspecified) 15.8 µM [fluorescent, side channel, partial curve]
CCC(=O)N(C)/C=C1\Sc2ccccc2C1=O 39.8 µM [fluorescent, side channel, single point]
Cc1cccc(NC(=O)CSc2nsc(SCC(=O)Nc3cccc(C)c3)c2C#N)c1 35.5 µM [inhibitor, single point]
COc1ccc(NC(=O)CSc2nc3c(c(=O)n2-c2ccc(F)cc2)SCC3)cc1 39.8 µM [inhibitor, single point]
Cc1ccc(NC(=O)CCOc2ccccc2)cc1S(=O)(=O)Nc1ccccc1Cl 10 µM [quencher, side channel, partial curve]

FP activity change, negative = inhibition, inactive:
CC[N+](CC)(CC)CC[C@](O)(c1ccccc1)C1CCCCC1 -1.98% [at 24.8 µM]
CCCCOc1ccc(C(=O)N/C(=C\c2ccc(OC)cc2)C(=O)OCc2ccco2)cc1 -21.3%
Clc1ccc2nc(-c3ccncc3)cc(-c3ccccc3)c2c1 -25.3%
Cc1cc(=O)[nH]c2cc(Cl)ccc12 -23.3%
COc1ccc(CNC(=O)CCSc2nc(-c3ccc4c(c3)OCO4)cc(C(F)(F)F)n2)cc1 7.24%
